These are yes or no findings as the source states them, for the method shown. In cells and extracts the contact can be indirect. Some entries that bind do so weakly or less than the wild type. For part of these data: Sequences can lack the tags named with a protein.
T1: Myc-tagged BBRF2 (Epstein-Barr virus (human herpesvirus 4 strain M81)) (UniProt P29882)
T1 sequence: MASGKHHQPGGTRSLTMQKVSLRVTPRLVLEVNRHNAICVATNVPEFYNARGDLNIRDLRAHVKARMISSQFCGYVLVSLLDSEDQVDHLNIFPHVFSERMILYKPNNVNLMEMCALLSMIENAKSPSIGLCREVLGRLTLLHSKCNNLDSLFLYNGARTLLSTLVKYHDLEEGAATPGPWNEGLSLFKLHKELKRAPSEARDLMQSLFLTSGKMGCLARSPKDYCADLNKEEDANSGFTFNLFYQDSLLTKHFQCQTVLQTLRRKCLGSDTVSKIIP

Sequences of proteins named here, by UniProt entry; tags and fusion partners are left off. Residues count along the entry.
UniProt P03186, residues 1-1027: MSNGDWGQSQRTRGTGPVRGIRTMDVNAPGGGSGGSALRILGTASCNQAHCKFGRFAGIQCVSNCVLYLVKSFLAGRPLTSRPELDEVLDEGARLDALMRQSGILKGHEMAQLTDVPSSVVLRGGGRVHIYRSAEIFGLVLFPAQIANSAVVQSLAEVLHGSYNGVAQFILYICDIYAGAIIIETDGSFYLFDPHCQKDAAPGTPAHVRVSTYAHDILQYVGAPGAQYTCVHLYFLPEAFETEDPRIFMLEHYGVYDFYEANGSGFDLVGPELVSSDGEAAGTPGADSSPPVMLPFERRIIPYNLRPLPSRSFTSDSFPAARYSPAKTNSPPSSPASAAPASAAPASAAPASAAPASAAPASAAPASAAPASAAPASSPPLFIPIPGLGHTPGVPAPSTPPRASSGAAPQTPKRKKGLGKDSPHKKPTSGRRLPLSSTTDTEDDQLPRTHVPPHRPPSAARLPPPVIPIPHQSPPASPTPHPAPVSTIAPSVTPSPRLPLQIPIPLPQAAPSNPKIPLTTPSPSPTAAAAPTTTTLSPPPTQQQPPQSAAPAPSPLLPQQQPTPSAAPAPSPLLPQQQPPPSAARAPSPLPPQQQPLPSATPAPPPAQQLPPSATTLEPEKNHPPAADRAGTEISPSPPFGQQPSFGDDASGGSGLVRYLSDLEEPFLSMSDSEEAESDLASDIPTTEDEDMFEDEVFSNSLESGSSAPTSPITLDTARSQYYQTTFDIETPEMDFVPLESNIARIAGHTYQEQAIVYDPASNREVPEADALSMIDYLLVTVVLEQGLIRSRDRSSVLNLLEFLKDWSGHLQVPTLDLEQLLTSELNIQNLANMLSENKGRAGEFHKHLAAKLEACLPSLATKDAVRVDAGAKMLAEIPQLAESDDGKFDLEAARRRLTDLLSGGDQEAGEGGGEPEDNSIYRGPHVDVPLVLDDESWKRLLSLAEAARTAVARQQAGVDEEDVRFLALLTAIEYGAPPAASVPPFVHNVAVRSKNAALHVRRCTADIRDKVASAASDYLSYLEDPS
UniProt P06477, residues 19-838: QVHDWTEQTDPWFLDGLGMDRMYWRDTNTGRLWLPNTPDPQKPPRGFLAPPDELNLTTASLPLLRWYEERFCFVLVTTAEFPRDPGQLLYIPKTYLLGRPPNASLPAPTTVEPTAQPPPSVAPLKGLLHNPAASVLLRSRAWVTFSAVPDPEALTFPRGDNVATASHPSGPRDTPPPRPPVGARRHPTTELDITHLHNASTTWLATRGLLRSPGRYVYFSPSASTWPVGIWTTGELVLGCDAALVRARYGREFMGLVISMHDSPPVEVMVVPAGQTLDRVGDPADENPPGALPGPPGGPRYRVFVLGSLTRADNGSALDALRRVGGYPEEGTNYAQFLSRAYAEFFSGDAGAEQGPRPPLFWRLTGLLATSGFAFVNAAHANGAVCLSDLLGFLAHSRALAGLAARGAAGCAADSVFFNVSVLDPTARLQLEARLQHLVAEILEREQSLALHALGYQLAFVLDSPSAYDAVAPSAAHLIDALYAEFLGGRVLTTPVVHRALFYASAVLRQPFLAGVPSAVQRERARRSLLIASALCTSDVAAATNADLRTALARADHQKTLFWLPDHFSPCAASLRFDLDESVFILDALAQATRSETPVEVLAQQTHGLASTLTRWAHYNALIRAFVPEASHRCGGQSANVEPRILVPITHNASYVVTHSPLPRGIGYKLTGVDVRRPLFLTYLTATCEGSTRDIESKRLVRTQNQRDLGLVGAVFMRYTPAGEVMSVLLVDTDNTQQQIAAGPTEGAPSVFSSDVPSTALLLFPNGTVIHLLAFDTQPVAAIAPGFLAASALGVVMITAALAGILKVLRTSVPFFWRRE

T2: BBRF2Δ expressed in HEK293T cells (Epstein-Barr virus (human herpesvirus 4 strain M81)) (UniProt P29882)
T2 sequence: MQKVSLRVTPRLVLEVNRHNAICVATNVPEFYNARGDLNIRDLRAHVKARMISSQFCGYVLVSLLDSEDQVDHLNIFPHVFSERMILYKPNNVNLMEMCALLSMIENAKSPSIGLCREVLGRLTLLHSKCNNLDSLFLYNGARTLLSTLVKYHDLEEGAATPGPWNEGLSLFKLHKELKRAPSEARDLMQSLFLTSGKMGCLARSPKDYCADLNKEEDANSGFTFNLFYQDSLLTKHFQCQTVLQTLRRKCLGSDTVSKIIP

T3: Flag-tagged BSRF1 (Epstein-Barr virus (human herpesvirus 4 strain M81)) (UniProt P0CK49)
T3 sequence: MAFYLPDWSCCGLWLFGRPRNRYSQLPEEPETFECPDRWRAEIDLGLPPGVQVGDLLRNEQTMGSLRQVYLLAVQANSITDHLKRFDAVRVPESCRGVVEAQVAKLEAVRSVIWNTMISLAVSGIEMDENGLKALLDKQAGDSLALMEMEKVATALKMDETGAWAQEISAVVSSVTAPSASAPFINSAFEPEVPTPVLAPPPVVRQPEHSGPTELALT

T4: EBV MCP expressed in HEK293T cells (Epstein-Barr virus) (UniProt P03226)
T4 sequence: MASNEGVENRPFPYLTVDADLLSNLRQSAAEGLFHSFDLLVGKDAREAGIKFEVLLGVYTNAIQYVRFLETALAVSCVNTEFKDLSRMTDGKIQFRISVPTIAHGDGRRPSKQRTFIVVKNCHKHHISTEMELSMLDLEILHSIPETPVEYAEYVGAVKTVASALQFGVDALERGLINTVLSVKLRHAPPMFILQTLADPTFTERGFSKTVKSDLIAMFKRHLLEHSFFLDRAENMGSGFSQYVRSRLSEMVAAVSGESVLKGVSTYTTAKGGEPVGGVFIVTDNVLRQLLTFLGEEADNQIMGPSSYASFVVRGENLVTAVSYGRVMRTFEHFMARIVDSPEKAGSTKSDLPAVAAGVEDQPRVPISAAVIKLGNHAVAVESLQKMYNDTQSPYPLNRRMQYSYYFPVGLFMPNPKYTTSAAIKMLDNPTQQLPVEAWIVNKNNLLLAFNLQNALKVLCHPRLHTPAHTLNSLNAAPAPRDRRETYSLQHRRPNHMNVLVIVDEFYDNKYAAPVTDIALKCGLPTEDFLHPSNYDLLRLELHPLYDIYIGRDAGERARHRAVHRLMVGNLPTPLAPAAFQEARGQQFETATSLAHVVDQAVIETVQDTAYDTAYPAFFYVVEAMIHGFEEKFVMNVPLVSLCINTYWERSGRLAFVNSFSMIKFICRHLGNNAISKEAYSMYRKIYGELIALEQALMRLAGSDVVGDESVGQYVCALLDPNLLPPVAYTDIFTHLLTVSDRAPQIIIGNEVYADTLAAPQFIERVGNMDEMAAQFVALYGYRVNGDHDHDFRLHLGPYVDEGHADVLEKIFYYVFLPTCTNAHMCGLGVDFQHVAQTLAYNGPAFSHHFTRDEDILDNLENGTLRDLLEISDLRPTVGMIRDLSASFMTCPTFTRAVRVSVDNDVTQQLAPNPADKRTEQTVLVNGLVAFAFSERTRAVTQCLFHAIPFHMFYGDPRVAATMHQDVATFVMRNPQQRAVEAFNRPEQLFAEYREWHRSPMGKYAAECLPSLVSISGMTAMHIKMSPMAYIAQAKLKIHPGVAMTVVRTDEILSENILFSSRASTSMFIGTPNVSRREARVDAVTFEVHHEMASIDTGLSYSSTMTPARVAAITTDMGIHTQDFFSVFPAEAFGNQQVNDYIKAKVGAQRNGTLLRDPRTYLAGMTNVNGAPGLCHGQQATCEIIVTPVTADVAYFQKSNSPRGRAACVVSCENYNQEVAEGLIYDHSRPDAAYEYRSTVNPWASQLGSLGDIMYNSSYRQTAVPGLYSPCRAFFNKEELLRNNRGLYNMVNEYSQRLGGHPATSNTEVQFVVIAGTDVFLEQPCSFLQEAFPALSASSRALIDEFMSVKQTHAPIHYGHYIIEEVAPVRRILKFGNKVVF


Experiments:
Test in all cases: co-IP; transfected HEK293T cells; lysis buffer 25 mM Tris-HCl pH 7.4, 150 mM NaCl, 1 mM EDTA, 1% NP40, 5% glycerol; anti-Flag, anti-Myc or anti-HA beads overnight at 4 °C; Western blot
[1] = target: T1, Myc-tagged BBRF2 (Epstein-Barr virus (human herpesvirus 4 strain M81))
[2] = target: T2, BBRF2Δ expressed in HEK293T cells (Epstein-Barr virus (human herpesvirus 4 strain M81))
[3] = target: T3, Flag-tagged BSRF1 (Epstein-Barr virus (human herpesvirus 4 strain M81))
[4] = target: T4, EBV MCP expressed in HEK293T cells (Epstein-Barr virus)
[5] = target: BPLF1_(1-1027) (Epstein-Barr virus) (UniProt P03186)

Molecule | binding [1] | binding [2] | binding [3] | binding [4] | binding [5]
BPLF1_(1-1027) (from UniProt P03186 1-1027) (domain or fragment) | binds | binds |  |  | 
HSV-1 gH (from UniProt P06477 19-838) |  |  | no binding |  | 
BBRF2Δ expressed in HEK293T cells (domain or fragment, UniProt P29882 17-278) MQKVSLRVTPRLVLEVNRHNAICVATNVPEFYNARGDLNIRDLRAHVKARMISSQFCGYVLVSLLDSEDQVDHLNIFPHVFSERMILYKPNNVNLMEMCALLSMIENAKSPSIGLCREVLGRLTLLHSKCNNLDSLFLYNGARTLLSTLVKYHDLEEGAATPGPWNEGLSLFKLHKELKRAPSEARDLMQSLFLTSGKMGCLARSPKDYCADLNKEEDANSGFTFNLFYQDSLLTKHFQCQTVLQTLRRKCLGSDTVSKIIP |  |  |  | binds | binds
Myc-tagged BBRF2 (protein, UniProt P29882 1-278) MASGKHHQPGGTRSLTMQKVSLRVTPRLVLEVNRHNAICVATNVPEFYNARGDLNIRDLRAHVKARMISSQFCGYVLVSLLDSEDQVDHLNIFPHVFSERMILYKPNNVNLMEMCALLSMIENAKSPSIGLCREVLGRLTLLHSKCNNLDSLFLYNGARTLLSTLVKYHDLEEGAATPGPWNEGLSLFKLHKELKRAPSEARDLMQSLFLTSGKMGCLARSPKDYCADLNKEEDANSGFTFNLFYQDSLLTKHFQCQTVLQTLRRKCLGSDTVSKIIP |  |  |  | binds | binds
EBV MCP expressed in HEK293T cells (protein, UniProt P03226 1-1381) MASNEGVENRPFPYLTVDADLLSNLRQSAAEGLFHSFDLLVGKDAREAGIKFEVLLGVYTNAIQYVRFLETALAVSCVNTEFKDLSRMTDGKIQFRISVPTIAHGDGRRPSKQRTFIVVKNCHKHHISTEMELSMLDLEILHSIPETPVEYAEYVGAVKTVASALQFGVDALERGLINTVLSVKLRHAPPMFILQTLADPTFTERGFSKTVKSDLIAMFKRHLLEHSFFLDRAENMGSGFSQYVRSRLSEMVAAVSGESVLKGVSTYTTAKGGEPVGGVFIVTDNVLRQLLTFLGEEADNQIMGPSSYASFVVRGENLVTAVSYGRVMRTFEHFMARIVDSPEKAGSTKSDLPAVAAGVEDQPRVPISAAVIKLGNHAVAVESLQKMYNDTQSPYPLNRRMQYSYYFPVGLFMPNPKYTTSAAIKMLDNPTQQLPVEAWIVNKNNLLLAFNLQNALKVLCHPRLHTPAHTLNSLNAAPAPRDRRETYSLQHRRPNHMNVLVIVDEFYDNKYAAPVTDIALKCGLPTEDFLHPSNYDLLRLELHPLYDIYIGRDAGERARHRAVHRLMVGNLPTPLAPAAFQEARGQQFETATSLAHVVDQAVIETVQDTAYDTAYPAFFYVVEAMIHGFEEKFVMNVPLVSLCINTYWERSGRLAFVNSFSMIKFICRHLGNNAISKEAYSMYRKIYGELIALEQALMRLAGSDVVGDESVGQYVCALLDPNLLPPVAYTDIFTHLLTVSDRAPQIIIGNEVYADTLAAPQFIERVGNMDEMAAQFVALYGYRVNGDHDHDFRLHLGPYVDEGHADVLEKIFYYVFLPTCTNAHMCGLGVDFQHVAQTLAYNGPAFSHHFTRDEDILDNLENGTLRDLLEISDLRPTVGMIRDLSASFMTCPTFTRAVRVSVDNDVTQQLAPNPADKRTEQTVLVNGLVAFAFSERTRAVTQCLFHAIPFHMFYGDPRVAATMHQDVATFVMRNPQQRAVEAFNRPEQLFAEYREWHRSPMGKYAAECLPSLVSISGMTAMHIKMSPMAYIAQAKLKIHPGVAMTVVRTDEILSENILFSSRASTSMFIGTPNVSRREARVDAVTFEVHHEMASIDTGLSYSSTMTPARVAAITTDMGIHTQDFFSVFPAEAFGNQQVNDYIKAKVGAQRNGTLLRDPRTYLAGMTNVNGAPGLCHGQQATCEIIVTPVTADVAYFQKSNSPRGRAACVVSCENYNQEVAEGLIYDHSRPDAAYEYRSTVNPWASQLGSLGDIMYNSSYRQTAVPGLYSPCRAFFNKEELLRNNRGLYNMVNEYSQRLGGHPATSNTEVQFVVIAGTDVFLEQPCSFLQEAFPALSASSRALIDEFMSVKQTHAPIHYGHYIIEEVAPVRRILKFGNKVVF | binds | binds |  |  | 
